# T1: monkey 4-1BB (Cy4-1BB) (SEQ ID No.6), coated on the ELISA plate (monkey, UniProt Q07011 24-186 (human entry), limits assumed)
# T1 chain: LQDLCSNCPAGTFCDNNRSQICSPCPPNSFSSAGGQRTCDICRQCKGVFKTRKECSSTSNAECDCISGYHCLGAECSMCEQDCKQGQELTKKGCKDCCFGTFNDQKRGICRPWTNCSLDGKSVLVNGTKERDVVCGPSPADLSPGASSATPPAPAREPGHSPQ
# Key:
# [1] = biological target: T2, human 4-1BB (SEQ ID No.5), coated on the ELISA plate (human, UniProt Q07011 24-186, limits assumed); assay: ELISA, coated human 4-1BB
# T2 construct: also called CD137
# [2] = biological target: T1, monkey 4-1BB (Cy4-1BB) (SEQ ID No.6), …; assay: ELISA, coated monkey 4-1BB
# [3] = biological target: T3, human 4-1BB full length, on the cell surface (human, UniProt Q07011 24-255); assay: FACS, CHO-K1-hu4-1BB cells
# T3 construct: also called CHO-K1-hu4-1BB; WT (Human 4-1BB full length, Expi293 transient)
Binder,EC50 [1] [µg/mL],EC50 [2] [µg/mL],EC50 [3] [µg/mL]
"scFvB60302 (scFv, the whole entry is the construct) scFv: QVQLQESGPGLVKPSETLSLTCTVSGSSLTSYGVHWVRQPPGKGLEGLGVIWPGGSTNYNSALMSRLTISKDNSKSQVSLKMSSLTAADTAMYYCARVTGTWYFDVWGQGTTVTVSSGGGGSGGGGSGGGGSDIQMTQSPSSLSASLGDRVTISCSASQGISNYLNWYQQKPDGTVKLLIYYTSTLHSGVPSRFSGSGSGTDFTLTISSLQPEDVATYYCQQYSKLPWTFGGGTKLEIKDKRV[human IgG4 Fc with S228P (EU numbers) cut from this listing]",0.0975,0.0566,
"scFvB60301 (scFv, the whole entry is the construct) scFv: QVQLQESGPGLVKPSETLSLTCTVSGSSLTSYGVHWVRQPPGKGLEGLGVIWPGGSTNYNSALMSRLTISKDNSKSQVSLKMSSLTAADTAMYYCARVTGTWYFDVWGQGTTVTVSSGGGGSGGGGSGGGGSDIQMTQSPSSLSASVGDRVTISCSASQGISNYLNWYQQKPDGTVKLLIYYTSTLHSGVPSRFSGSGSGTDFTLTISSLQPEDVATYYCQQYSKLPWTFGGGTKLEIKDKRV[human IgG4 Fc with S228P (EU numbers) cut from this listing]",0.0766,0.0517,
scFvB60103 (scFv) scFv: QVQLQESGPGLVKPSETLSITCTVSGSSLTSYGVHWVRQPPGKGLEGLGVIWPGGSTNYNSALMSRLTISKDNSKSQVSLKMSSLTAADTAMYYCARVTGTWYFDVWGQGTTVTVSSGGGGSGGGGSGGGGSDIQMTQSPSSLSASLGDRVTISCSASQGISNYLNWYQQKPDGTVKLLIYYTSTLHSGVPSRFSGSGSGTDFTLTISSLQPEDVATYYCQQYSKLPWTFGGGTKLEIKDKRV[human IgG4 Fc with S228P (EU numbers) cut from this listing],0.0447,0.0217,1.8
"scFvB60203 (scFv, the whole entry is the construct) scFv: QVQLQESGPGLVKPSETLSLTCTVSGSSLTSYGVHWVRQPPGKGLEGLGVIWPGGSTNYNSALMSRVTISKDNSKSQVSLKMSSLTAADTAMYYCARVTGTWYFDVWGQGTTVTVSSGGGGSGGGGSGGGGSDIQMTQSPSSLSASLGDRVTISCSASQGISNYLNWYQQKPDGTVKLLIYYTSTLHSGVPSRFSGSGSGTDYTLTISSLQPEDIATYYCQQYSKLPWTFGGGTKLEIKDKRV[human IgG4 Fc with S228P (EU numbers) cut from this listing]",0.0824,0.0367,
"scFvB60403 (scFv, the whole entry is the construct) scFv: QVQLQESGPGLVKPSETLSITCTVSGSSLTSYGVHWVRQPPGKGLEGLGVIWPGGSTNYNSALMSRLTISKDNSKSQVSLKMSSLTAADTAMYYCARVTGTWYFDVWGQGTTVTVSSGGGGSGGGGSGGGGSDIQMTQSPSSLSASLGDRVTISCSASQGISNYLNWYQQKPDGTVKLLIYYTSTLHSGVPSRFSGSGSGTDYTLTISSLQPEDIATYYCQQYSKLPWTFGGGTKLEIKDKRV[human IgG4 Fc with S228P (EU numbers) cut from this listing]",0.195,0.108,

# Results, then the binder that gave them:
EC50 [1] [µg/mL],EC50 [2] [µg/mL],EC50 [3] [µg/mL],Binder
0.153,0.0608,,"scFvB60202 (scFv, the whole entry is the construct) scFv: QVQLQESGPGLVKPSETLSLTCTVSGSSLTSYGVHWVRQPPGKGLEGLGVIWPGGSTNYNSALMSRVTISKDNSKSQVSLKMSSLTAADTAMYYCARVTGTWYFDVWGQGTTVTVSSGGGGSGGGGSGGGGSDIQMTQSPSSLSASLGDRVTISCSASQGISNYLNWYQQKPDGTVKLLIYYTSTLHSGVPSRFSGSGSGTDFTLTISSLQPEDVATYYCQQYSKLPWTFGGGTKLEIKDKRV[human IgG4 Fc with S228P (EU numbers) cut from this listing]"
0.165,0.0698,,"scFvB60201 (scFv, the whole entry is the construct) scFv: QVQLQESGPGLVKPSETLSLTCTVSGSSLTSYGVHWVRQPPGKGLEGLGVIWPGGSTNYNSALMSRVTISKDNSKSQVSLKMSSLTAADTAMYYCARVTGTWYFDVWGQGTTVTVSSGGGGSGGGGSGGGGSDIQMTQSPSSLSASVGDRVTISCSASQGISNYLNWYQQKPDGTVKLLIYYTSTLHSGVPSRFSGSGSGTDFTLTISSLQPEDVATYYCQQYSKLPWTFGGGTKLEIKDKRV[human IgG4 Fc with S228P (EU numbers) cut from this listing]"
1.04,0.772,,"scFvB60401 (scFv, the whole entry is the construct) scFv: QVQLQESGPGLVKPSETLSITCTVSGSSLTSYGVHWVRQPPGKGLEGLGVIWPGGSTNYNSALMSRLTISKDNSKSQVSLKMSSLTAADTAMYYCARVTGTWYFDVWGQGTTVTVSSGGGGSGGGGSGGGGSDIQMTQSPSSLSASVGDRVTISCSASQGISNYLNWYQQKPDGTVKLLIYYTSTLHSGVPSRFSGSGSGTDFTLTISSLQPEDVATYYCQQYSKLPWTFGGGTKLEIKDKRV[human IgG4 Fc with S228P (EU numbers) cut from this listing]"

# Reference: patent publication US20220411523A1 (HEFEI HANKEMAB BIOTECHNOLOGY, published 2022)
